Assay results published in the supplement of paper PMC8285479.
Where “and” joins values, the source holds several entries; their conditions need not be identical. Equal values may be shown once. Where a name gives a salt, the structure may show the parent alone. ± gives the standard deviation of the averaged measurements. Over roughly 1,900 compounds, “normalised cell viability (NPI; 0 = phenylarsine oxide control, 1 = DMSO control)” has its median near 1; the lowest 2% begin near 0.039. This is one part of the list.

Tested on: NCI-H1944
Assay: normalised cell viability (NPI; 0 = phenylarsine oxide control, 1 = DMSO control) (fraction of DMSO control); NCI-H1944 is a non-small cell lung cancer line; higher = more viable cells (less compound toxicity)
Settings: 6 days
[1] = glucocorticoid arm: hydrocortisone 2.75 uM co-treatment, compound 1 µM
[2] = glucocorticoid arm: hydrocortisone 2.75 uM co-treatment, compound 5 µM
[3] = glucocorticoid arm: hydrocortisone 2.75 uM pre-treated 2 days and continued, compound 1 µM
[4] = glucocorticoid arm: hydrocortisone 2.75 uM pre-treated 2 days and continued, compound 5 µM
[5] = glucocorticoid arm: vehicle, compound 1 µM
[6] = glucocorticoid arm: vehicle, compound 5 µM
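Note: CTB read-out in 384-well plates, mean of triplicate wells, normalised per plate against 1 µM phenylarsine oxide and 0.1% DMSO, compounds added 24 h after seeding.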

SMILES	normalised cell viability [1]	normalised cell viability [2]	normalised cell viability [3]	normalised cell viability [4]	normalised cell viability [5]	normalised cell viability [6]
COC1CCN(C(=O)c2cc(Cc3n[nH]c(=O)c4ccccc34)ccc2F)CC1	1.002 ± 0.0072	1.05 ± 0.01	1.002 ± 0.0076	1.043 ± 0.0058	1 ± 0.01	0.985 ± 0.0095
Nc1ncnc2c1ncn2C1CCCO1 (centres undefined)	1.003 ± 0.0058	0.993 ± 0.017	1.01 ± 0.03	1.027 ± 0.0058	1.007 ± 0.0058	1.01 ± 0.011
Nc1ccn([C@@H]2O[C@H](CO)[C@@H](O)[C@@H]2O)c(=O)n1	0.178 ± 0.001	0.115 ± 0.0035	0.91 ± 0.011	0.31 ± 0.04	0.0325 ± 0.0032	0.0276 ± 0.0059
Nc1ccn([C@@H]2O[C@H](CO)[C@@H](O)[C@@H]2O)c(=O)n1 [Cytosine-1-beta-D-arabinofuranoside hydrochloride]	0.352 ± 0.026	0.163 ± 0.022	1.03 ± 0.017	0.802 ± 0.22	0.0913 ± 0.011	0.0638 ± 0.0066
O=C(NCCO)c1ccc2c(c1)nc(Nc1cccc(Cl)c1)c1ccncc12 [CK2 Inhibitor 2]	1.02 ± 0.022	0.854 ± 0.028	1.03 ± 0.015	1.07 ± 0.021	1.001 ± 0.0081	0.567 ± 0.033
Cc1[nH]c2ccccc2c1CCNCc1ccc(/C=C/C(=O)NO)cc1 [Panobinostat (LBH589)]	0.00703 ± 0.0011	0.00134 ± 0.00097	0.00592 ± 0.0022	0.00214 ± 0.0018	0.00625 ± 0.001	9e-05 ± 0.00045
N[C@@H](Cc1ccc(O)c(I)c1)C(=O)O [3-Iodo-L-tyrosine]	0.982 ± 0.01	0.973 ± 0.035	0.991 ± 0.006	0.996 ± 0.066	0.999 ± 0.011	0.998 ± 0.01
Nc1ccc(C(=O)Nc2cccc(-c3nc(N4CCOCC4)c4oc5ncccc5c4n3)c2)cn1	0.876 ± 0.029	1.02 ± 0.015	0.962 ± 0.014	0.986 ± 0.012	0.377 ± 0.015	0.899 ± 0.02
CN(C)CCCN1c2ccccc2Sc2ccc(Cl)cc21 [Chlorpromazine hydrochloride]	1.01 ± 0.014	0.9463 ± 0.005	1.006 ± 0.0063	1.02 ± 0.033	1 ± 0.012	0.988 ± 0.011
COc1cc([C@@H]2c3cc4c(cc3[C@@H](O[C@@H]3O[C@@H]5CO[C@@H](c6cccs6)O[C@H]5[C@H](O)[C@H]3O)[C@H]3COC(=O)[C@H]23)OCO4)cc(OC)c1O [Teniposide]	0.707 ± 0.048	0.162 ± 0.012	0.976 ± 0.0096	0.613 ± 0.0069	0.271 ± 0.0049	0.0406 ± 0.0044
O=C1NC(=O)/C(=C/c2ccc3c(c2)OC(F)(F)O3)S1	0.985 ± 0.015	1.01 ± 0.022	0.9957 ± 0.0059	1.002 ± 0.0068	0.9993 ± 0.0011	1 ± 0.0087
CCCCOc1cc(CC2CNC(=O)N2)ccc1OC (centres undefined)	1.01 ± 0.01	1.01 ± 0.021	1.01 ± 0.011	1.01 ± 0.021	1.013 ± 0.0058	1.013 ± 0.0058
CC(C)Cn1c(=O)n(C)c(=O)c2[nH]cnc21 [3-Isobutyl-1-methylxanthine]	1.003 ± 0.0061	1.01 ± 0.019	0.9957 ± 0.004	1.03 ± 0.094	0.99 ± 0.01	0.993 ± 0.015
CC(C)c1ccc2c(c1)c(SC(C)(C)C)c(CC(C)(C)C(=O)O)n2Cc1ccc(Cl)cc1 [MK-886 sodium hydrate]	0.9957 ± 0.0029	0.977 ± 0.03	1.002 ± 0.0068	1 ± 0.07	0.9823 ± 0.0029	1.002 ± 0.0067
Cc1cc(Nc2nc(N[C@@H](C)c3ccc(F)cc3)c(C#N)cc2F)n[nH]1	0.665 ± 0.045	0.582 ± 0.043	0.808 ± 0.035	0.713 ± 0.047	0.342 ± 0.075	0.191 ± 0.026
CC(/C=C/C(=O)NO)=C\[C@@H](C)C(=O)c1ccc(N(C)C)cc1 [Trichostatin A]	2.17e-05 ± 0.00056	0.000584 ± 0.0001	0.00474 ± 0.0016	0.00101 ± 0.0013	-0.000312 ± 0.00084	0.000187 ± 0.00072
Cc1nc(Nc2ncc(C(=O)Nc3c(C)cccc3Cl)s2)cc(N2CCN(CCO)CC2)n1 [Dasatinib]	0.339 ± 0.025	0.281 ± 0.022	0.427 ± 0.043	0.376 ± 0.015	0.51 ± 0.045	0.436 ± 0.061

SMILES	normalised cell viability [1]	normalised cell viability [2]	normalised cell viability [3]	normalised cell viability [4]	normalised cell viability [5]	normalised cell viability [6]
Cc1nc(Nc2ncc(C(=O)Nc3c(C)cccc3Cl)s2)cc(N2CCN(CCO)CC2)n1	0.967 ± 0.016	0.957 ± 0.037	0.989 ± 0.024	0.997 ± 0.022	0.957 ± 0.013	0.966 ± 0.0092
CCN1CCN(Cc2ccc(-c3cc4c(N[C@H](C)c5ccccc5)ncnc4[nH]3)cc2)CC1	0.812 ± 0.041	0.693 ± 0.043	0.885 ± 0.014	0.752 ± 0.047	0.8103 ± 0.0047	0.6 ± 0.016
CC(=O)[C@H]1CC[C@H]2[C@@H]3CC=C4C[C@@H](O)CC[C@]4(C)[C@H]3CC[C@]12C [Pregnenolone]	1.04 ± 0.01	1.07 ± 0.026	1.03 ± 0.011	1.02 ± 0.015	1.01	1.007 ± 0.0058
CC(C)(C)c1ccc(C(O)CCCN2CCC(C(O)(c3ccccc3)c3ccccc3)CC2)cc1 (centres undefined) [Terfenadine]	0.997 ± 0.0027	0.9833 ± 0.0051	1.03 ± 0.017	1.03 ± 0.017	0.9927 ± 0.006	0.0387 ± 0.043
C=C1C(=O)O[C@@H](CCC)[C@@H]1C(=O)O [Butyrolactone 3]	1 ± 0.013	1.02 ± 0.015	0.998 ± 0.013	1.017 ± 0.0082	0.996 ± 0.0046	1.001 ± 0.0075
CCCCN1CCCCC1C(=O)Nc1c(C)cccc1C (centres undefined) [Bupivacaine HCl]	1.02 ± 0.011	0.995 ± 0.016	1.023 ± 0.0058	1.02 ± 0.016	0.999 ± 0.0017	0.9923 ± 0.005
C[N+](C)(C)CCCCCNCC12CC3CC(CC(C3)C1)C2	1 ± 0.0092	0.973 ± 0.033	1.01 ± 0.013	0.985 ± 0.016	0.9897 ± 0.0035	0.9947 ± 0.0031
N[C@H](CO)C(=O)O [D-Serine]	1.013 ± 0.0058	1.04 ± 0.06	0.896 ± 0.27	1.02 ± 0.01	1.02	1.017 ± 0.0058
NC(Cc1cccc(-c2ccccc2CP(=O)(O)O)c1)C(=O)O (stereo not drawn) [Phenylbenzene-omega-phosphono-alpha-amino acid]	0.9963 ± 0.0055	1.1 ± 0.021	1.06 ± 0.087	1.04 ± 0.021	1.017 ± 0.0058	1.03 ± 0.01
O=S(=O)(c1cccc2cnccc12)N1CCNCC1	1.01 ± 0.011	1.02 ± 0.017	1.002 ± 0.0076	1.01 ± 0.021	0.9987 ± 0.0023	1.003 ± 0.0058
COC(=O)Nc1ccc(-c2nc(N3CCOCC3)c3cnn(C4CCN(Cc5cccnc5)CC4)c3n2)cc1	0.606 ± 0.025	0.78 ± 0.031	0.692 ± 0.015	0.804 ± 0.046	0.651 ± 0.039	0.934 ± 0.02
Nc1ncn([C@H]2C[C@H](O)[C@@H](CO)O2)c(=O)n1 [5-Aza-2'-deoxycytidine]	1.087 ± 0.0058	1.12 ± 0.05	1.07 ± 0.01	1.09 ± 0.015	0.581 ± 0.051	0.296 ± 0.027
Nc1ncn([C@H]2C[C@H](O)[C@@H](CO)O2)c(=O)n1 [Decitabine]	1.1 and 1.06	–	1.08 and 1.05	–	–	–
Nc1ncn([C@H]2C[C@H](O)[C@@H](CO)O2)c(=O)n1 [5-Aza-2'-deoxycytidine; Decitabine]	1.073 ± 0.0058	1.15 ± 0.026	1.07 ± 0.01	1.1 ± 0.02	0.204 ± 0.009	0.22 ± 0.021
NCCCCNCCCN [Spermidine trihydrochloride]	0.993 ± 0.015	0.991 ± 0.016	1.01 ± 0.021	0.9607 ± 0.0025	0.9847 ± 0.0095	0.997 ± 0.011
O=C(Cc1ccc(-c2ccc(OCCN3CCOCC3)cc2)cn1)NCc1ccccc1	0.235 ± 0.021	0.258 ± 0.015	0.464 ± 0.041	0.518 ± 0.077	0.0379 ± 0.0028	0.0359 ± 0.0039
